Reference: PubChem BioAssay AID686978 (National Center for Advancing Translational Sciences (NCATS), 2013)
About 64,000 (15%) of roughly 420,000 compounds were called active. The shares of active, inactive and inconclusive entries below differ from those in the screen. Calls follow the shape of the dose curve; as a rule, active = well fitted inhibition curve with a large enough effect; inconclusive = small, poorly fitted or top-dose-only effect; inactive = flat fitted curve, though single readings scatter. No potency is given beside an inconclusive call; the fits are too rough.

Assay: qHTS for Inhibitors of human tyrosyl-DNA phosphodiesterase 1 (TDP1): qHTS in cells in absence of CPT; also: nearly all actives have a fitted effect of over 55% in size
Settings: DT40 Tdp1-/- hTDP1 cells, no CPT, ATP luminescence, 48 h; activity change, negative = growth inhibition: at 46.2 µM (top of the series) unless noted
Procedure, shortened: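 Compound effects on proliferation are scored in DT40 Tdp1-/-;hTDP1 cells in the absence of CPT. ATP levels (CellTiter-Glo luminescence) are recorded after a ≥48 hr, 37 °C incubation.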
% is scaled to controls: 0 for no effect and ±100 for the full control effect; potency is read from the fitted curve at half-maximal effect; tags tell the direction and shape of the fitted curve.

| Compound | Potency | activity change, negative = growth inhibition |
| --- | --- | --- |
| CC1(C(=O)NCCc2ccccc2)Cc2c(-c3ccc(C(N)=O)cc3)ccnc2O1 (stereo not given) | inconclusive [inhibitor, single point] |  |
| CCOC(=O)c1ccc(NC(=O)c2cccnc2)cc1 | inconclusive [inhibitor, single point] |  |
| CCN(CC)C(=O)N1CCC(NC(=O)c2ccc(C(C)(C)C)cc2)CC1 | active: 23.1 µM |  |
| CCOc1ccccc1CNC(=O)CCc1cn(CC)c2ccccc12 | inconclusive [inhibitor, single point] |  |
| CC(Oc1ccc(Cl)cc1Cl)C(=O)NCCCn1ccnc1 (stereo not given) |  | inactive: -27.9% |
| Cc1ccc(NC(=O)CSCC(=O)OCc2cc(=O)oc3cc(O)ccc23)c(C)c1 |  | inactive: -28% |
| CCOC(=O)c1cnc2ccc(Cl)cc2c1Nc1ccc(OCC)cc1 | inconclusive [inhibitor, single point] |  |
| C[C@@H](C(=O)Nc1ccc2ccccc2c1)[C@@H]1C[C@@]1(C)[C@@H](NC(=O)c1cccnc1)c1ccccc1 |  | inconclusive: -32.5% [inhibitor] |
| OC(c1ccc(Cl)c(F)c1)c1ncc(-c2ccccc2C(F)(F)F)[nH]1 (stereo not given) | inconclusive [inhibitor, single point] |  |
| CCCCOc1ccc(/C=C/C(=O)Nc2ccc([N+](=O)[O-])cc2C)cc1 | inconclusive [inhibitor, single point] |  |
| O=C(CCl)N(C/C=C/c1ccccc1)c1ccc2c(c1)OCCO2 | active: 6.51 µM |  |
| COc1cc(NC(=S)NCCCN2CCOCC2)c(OC)cc1Cl |  | inactive: -9.23% |
| Cn1c(=O)n(C)c2cc([N+](=O)[O-])c(N3CCN(C(=O)c4ccccc4Br)CC3)cc21 | active: 20.6 µM |  |
| C=CCOc1cccc(C2C(C(=O)c3ccc(C)o3)=C(O)C(=O)N2CCCn2ccnc2)c1 (stereo not given) |  | inactive: 15.9% |
| CCOC(=S)SCC(=O)Nc1nc(-c2ccccc2)cs1 | active: 2.59 µM |  |
| CCOc1ccc(-c2cc3nc(C4CCN(C(=O)OC(C)(C)C)CC4)c(C(=O)O)cn3n2)cc1 | inconclusive [inhibitor, single point] |  |
| C[C@@H]1CN([C@@H](C)CO)C(=O)c2cc(-c3ccncc3)cnc2O[C@H]1CN(C)C(=O)c1cccc(F)c1 | inconclusive [inhibitor, full curve, poor fit] |  |
| COc1ccccc1N(C)S(=O)(=O)c1ccc(C)c(C(=O)Nc2nccs2)c1 | inconclusive [inhibitor, single point] |  |
| CCN(CC)C(=O)CSc1nc2cc(S(=O)(=O)N3CCOCC3)ccc2n1CC |  | inactive: -15% |
| Cc1ccc2cccc(OCc3cccc([N+](=O)[O-])c3)c2n1 |  | inactive: -8.98% |
| COc1ccc(/C=C/c2c(-c3ccc(OC)cc3)oc(=O)c3cc(OC)c(OC)cc23)cc1 | inconclusive [inhibitor, partial curve, poor fit] |  |
| COc1ccc(C(=O)N2CCCC(N3CCN(c4ccccc4F)CC3)C2)c(OC)n1 (stereo not given) | inconclusive [inhibitor, single point] |  |
| CCC1(CC)NC(=O)N(CC(=O)Nc2ccc(OCc3ccccc3)cc2)C1=O | active: 18.4 µM |  |
| COc1c(Cl)cc(Cl)cc1/C=N/NC(=O)c1nnn(-c2nonc2N)c1CN1CCC(C)CC1 | inconclusive [inhibitor, single point] |  |

| Compound | Potency | activity change, negative = growth inhibition |
| --- | --- | --- |
| CC(CN1CCN(CCOCCO)CC1)CN1c2ccccc2Sc2ccc(Cl)cc21 (stereo not given) | inconclusive [inhibitor, single point] |  |
| CCOc1ccc(NC(=O)c2nsc(Cl)c2Cl)cc1 |  | inactive: -21% |
| CCC(CC)C(=O)c1c[nH]c(C(=O)NCc2ccncc2)c1 | inconclusive [inhibitor, full curve, poor fit] |  |
| CCN(CC)S(=O)(=O)c1ccc(OC)c(NC(=O)CSc2cc(Cl)ccc2Cl)c1 | inconclusive [inhibitor, single point] |  |
| O=C(Oc1ccccc1)N1CCC[C@@]2(CCN(c3ccncc3)C2)C1 | inconclusive [inhibitor, single point] |  |
| COc1ccccc1NC(=O)CCN1CCCCCC1 |  | inactive: -13.6% |
| Cc1cccn2c(=O)cc(COc3cccc(NC(=O)COc4ccccc4)c3)nc12 | inconclusive [inhibitor, single point] |  |
| CC1(O)C(=O)c2ccccc2N(c2ccccc2)C1=O (stereo not given) | inconclusive [inhibitor, partial curve, poor fit] |  |
| CCOC(=O)Cn1nc(C)cc1NC(=O)c1cccnc1 |  | inactive: -1.43% |
| COc1cc2c(NC3CCN(C)CC3)nc(N3CCN(C)CC3)nc2cc1OCCCN(C)C | inconclusive [inhibitor, single point] |  |
| COc1ccc(CCNC(=O)CCCn2c(SCC(N)=O)nc3cc4c(cc3c2=O)OCO4)cc1OC |  | inactive: -14.3% |
| Cc1ccc(S(=O)(=O)N2CCN(C(=O)CSc3nc4ccccc4c(=O)[nH]3)CC2)c(C)c1 | inconclusive [inhibitor, partial curve, poor fit] |  |
| CCn1c(C(c2ccccc2)c2ccccc2)n[nH]c1=S |  | inconclusive: -32.7% [inhibitor] |
| CN1CCN(C(=O)c2ccc3c(c2)N(C)C(=O)/C(=C/c2cccc(Cl)c2)S3)CC1 | inconclusive [inhibitor, single point] |  |
| Cc1cc(S(=O)(=O)N2CCCCC2)ccc1OCC(=O)Nc1ccccc1 | inconclusive [inhibitor, single point] |  |
| c1ccc(N=Nc2ccc3cccccc2-3)cc1 | inconclusive [inhibitor, partial curve] |  |
| CCOC(=O)N1CCc2c(sc3c2c(=O)n(Cc2ccccc2)c(=O)n3Cc2ccc(C)cc2)C1 | inconclusive [inhibitor, single point] |  |
| CCc1cc2c(SCC(=O)N(CC)c3c(N)n(Cc4ccccc4)c(=O)[nH]c3=O)ncnc2s1 | inconclusive [inhibitor, single point] |  |
| O=C(Nc1scc(-c2ccccc2)c1C(=O)O)c1ccc(F)cc1 | inconclusive [inhibitor, single point] |  |
| COc1ccc(C2C(C#N)=C(N)OC3=C2C(=O)CC(C)C3)c(OC)c1OC (stereo not given) |  | inactive: -9.4% |
| CC1CCN(c2oc(-c3ccc(COc4ccc(Cl)cc4)o3)nc2C#N)CC1 | inconclusive [inhibitor, single point] |  |
| CC(C)(C)c1ccc(/C=C/C(=O)N2CCN(c3ncccn3)CC2)cc1 | inconclusive [inhibitor, partial curve] |  |
| CN(C)C(=O)N1CCC(C(=O)N2CCCC(C(=O)c3ccc(C(C)(C)C)cc3)C2)CC1 (stereo not given) | active: 16.4 µM |  |
| CSc1ccc(CNC(=O)CCc2c(C)nn(-c3ccc(N4CCCC4)nn3)c2C)cc1 | inconclusive [inhibitor, single point] |  |

| Compound | Potency | activity change, negative = growth inhibition |
| --- | --- | --- |
| CNc1cncc(-c2cccc(O)c2)n1 |  | inactive: -23.2% |
| COCCCNC(=O)N1c2ccccc2Sc2ccccc21 | inconclusive [inhibitor, single point] |  |
| Cc1nnc(SCC(=O)NN2C(=O)NC3(CCCCC3)C2=O)s1 |  | inactive: -1.51% |
| CCOC(=O)C1=C(C)N(c2ccc(Cl)cc2)C(=O)NC1c1cccc([N+](=O)[O-])c1 (stereo not given) |  | inactive: -14.8% |
| Cc1cc(C)nc(NC(=O)c2cccc(Br)c2)n1 | inconclusive [inhibitor, single point] |  |
| CC(C)(C)C(=O)N1CCN(c2nc3ccc(Cl)cc3s2)CC1 | active: 23.1 µM |  |
| CCOC(=O)c1c(NC(=O)CSc2nnc(-c3c[nH]c4ccccc34)n2C)sc2c1CCCC2 | inconclusive [inhibitor, single point] |  |
| Cc1ccc(-c2noc(C3CCN(C(=O)Nc4ccc(C#N)cc4)CC3)n2)o1 | inconclusive [inhibitor, partial curve, poor fit] |  |
| Cc1ccc(N(CC(=O)NCc2ccccc2Cl)S(=O)(=O)c2cccs2)cc1 |  | inconclusive: -35.2% [inhibitor] |
| CCOc1ccccc1CNC(=O)c1ccc(Cn2c(SCc3ccccc3)nc3cccnc32)cc1 | inconclusive [inhibitor, single point] |  |
| Nc1nc(/C(=C/CC(=O)O)C(=O)N[C@@H]2C(=O)N3C(C(=O)O)=CCS[C@H]23)cs1 |  | inactive: 2.06% |
| CCc1ccc2nc(SCC(=O)N3CC(=O)Nc4ccccc43)c(C#N)cc2c1 | active: 16.4 µM |  |
| S=C(NCCOCCOCCNC(=S)Nc1ccccc1)Nc1ccccc1 |  | inactive: 1.93% |
| CC(=O)Cc1nsc(Nc2ccc(Cl)cc2)n1 |  | inactive: -7.18% |
| CCOC(=O)C(Cc1ccccc1)c1ccnc2ncnn12 (stereo not given) |  | inactive: -0.545% |
| CCOc1ccc(C2N(c3cc(C)on3)C(=O)C3CCCN32)cc1OC (stereo not given) | inconclusive [inhibitor, single point] |  |
| CN1C(=O)C(C(=O)NC(C)(C)C)C2c3ccccc3OC13CCCCC23 (stereo not given) | inconclusive [inhibitor, single point] |  |
| COc1ccc(C(=O)Nc2ccc3c(c2)OCCO3)c(OC)c1 |  | inactive: -24.4% |
| N=C1/C(=C\c2ccc(OC(=O)c3ccccc3Cl)cc2)C(=O)N=C2SC(N3CCOCC3)=NN12 |  | inactive: -18% |
| CSc1sc(C(=O)NNC(C)=O)c2c1C1(CCC2)SCCS1 | inconclusive [inhibitor, full curve, poor fit] |  |
| O=C(C1CCN(S(=O)(=O)c2cccc3cccnc23)CC1)N1CCN(Cc2ccccc2)CC1 | inconclusive [inhibitor, single point] |  |
| CC(C)C(=O)N1CCC1(C)C(=O)Nc1ccccc1OC(F)F (stereo not given) |  | inactive: -0.922% |
